# Some of the results follow.
# Test system: PfHDP1 homeodomain (GST-tagged)
# Assay: gcPBM binding intensity (ln(normalized median fluorescence intensity)); higher = stronger DNA binding
# Outline: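 DNA-binding domains from P. falciparum, fused to GST and produced in E. coli, were put on an Agilent 4 × 180k double-stranded probe array for 1 h in 1× PBS holding 1% milk, 0.2 mg/ml BSA, 0.5% salmon testes DNA and 0.03% Triton X-100. Probes were primer-extended, 36 bp long and drawn from intergenic genomic regions, with negative controls included. After Alexa488 anti-GST antibody detection and a 488 nm scan, binding intensity was set as the highest Masliner-normalised natural-log median intensity across replicate spots of either probe orientation.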
row,Sequence,gcPBM binding intensity (ln)
1,CTTATGTGCATACCTACACACTTACAGATATATATA [CACACA_site5622],9.61
2,TAGGAAGAATTACTGTGTACTAAAATATTAAAAAGT [XGTACX_site4909],6.56
3,TTCAAATATTTTATTTGTACATAAAAAAGAAAGTTA [XGTACX_site8287],6.21
4,GATTTTTTTTTTTTTTCACACACTAATAATATTATC [CACACA_site464],6.74
5,TGTTTATGTATCAATTGTACAAAAAAAAAAAAAAAA [XGTACX_site1590],6.43
6,TTCAAAAAAATGTATACACACATAAGTATAATATAA [CACACA_site3758],6.64
7,TAAATAATATCTATCACACACGCATATATACATATA [CACACA_site2622],6.42
8,GTCGCATTTTATACAAGTACACATGAATTATACAAC [XGTACX_site2200],7.31
9,ATTATTAAAAAGATGTAAATAAATGAATATATGCTT [CACACA_negctrl_site539],6.52
10,TATTAAGAATTTACATGTACTTGTTAAATAAGAAAA [XGTACX_site4466],6.47
11,TTCTATATATTTTAATGTACATATATGATTATTCTT [XGTACX_site8294],6.61
12,ATATAGTATAATAAAAGTACATTTTGATTTTTTCTC [XGTACX_site1797],6.14
13,ATATAAATATATGGAAGTACACAAAAAAATTAAAAA [XGTACX_site8624],6.67
14,CATAAGAAAATAAAAACATGCACATAAGAAATATAC [TGCATGCA_site842],8.16
15,AATCTTCATACCAACACATGCACAAAAGAAATAAAA [TGCATGCA_site563],8.75
16,TATATTTATACATATTGTACATTTTATACTTTTACA [XGTACX_site3884],6.74
17,ATTTATAATCAGGGTTGTACACTTATAGAATTTTTA [XGTACX_site4175],6.2
18,CATATAAAAATATGCACACACAGGAATACAAACATA [CACACA_site684],9.64
19,AATAAAAAACTACAATATACAAAATTATTAAATCAA [GTGCAC_negctrl_site703],6.12

row,Sequence,gcPBM binding intensity (ln)
1,AAACGTACATAATACACACACATGTATCCATATAAA [CACACA_site5173],7.07
2,ACCTAAGAACTATTTACACACATATACAAAATATAT [CACACA_site2459],6.93
3,ATTGTTCTATGATTTGTACACACTTTTTTTTAAAAT [CACACA_site2825],7.27
4,AATAAAATGAGATGTTGTACAGTTTTGATATATGCA [XGTACX_site3052],6.34
5,AAGTTTATCACAGCCACGCACACATAATATATGTAT [CACACA_site3670],7
6,TTTAAAAATGCTACATGTACAAAATAAAATATAATA [XGTACX_site2905],6.87
7,ATATATATATATAAAAGTACATGCTTATATATATAT [XGTACX_site3786],9.02
8,TACAAAATATATATGACACACATAAAAAAAAGTATA [CACACA_site1373],6.63
9,CACCCACTAATAAACACACACATATATATATATATA [CACACA_site389],9.39
10,TATATAAACATACATACACACATACAATAAGTAAAA [CACACA_site5118],6.97
11,ATTTTTTTTATTCAATGTACTTTTTTTTATATATAT [XGTACX_site4978],6.81
12,GTATGTATGTATGTATGTACTTATGTAGTCTTAGTT [XGTACX_site1710],7.52
13,AGTGTAGGTATATAAACACACATACAGATATATAAT [CACACA_site4900],6.66
14,TAAAAAATAAAATGGACACACACGTTCAAATTTAGA [CACACA_site2083],6.5
15,TATTCAGGTCCAATGGTGCAATATATTTTTGTAATA [GTGCAC_site9607],10.6
16,ATATATATTTTTTAATGTACTTATATTTTTATAATA [XGTACX_site2103],6.44
17,ATACAATAAAGGTGTACACATATATGATGCAAGATG [CACACA_site5897],8.05
18,GGTCATATTTTTTGCACACAAAAAAAAATATAAAAT [CACACA_site3381],10.2
19,AGCAATTGTGTTTTCACACATAAATATATTCCTCAC [CACACA_site5021],6.49

row,Sequence,gcPBM binding intensity (ln)
1,AATTAAACTCACACCACACACAAAAAAAAAAAAAAA [CACACA_site693],6.15
2,TTAATAAACCTTAGATGTACAGTTATATATAAAATA [XGTACX_site6681],6.59
3,ATATATATATATATATGTACACATATATGTGTTTGT [XGTACX_site62],9.43
4,TGAACTCACGAGCACACACACACATATATATATATA [CACACA_site8248],9.16
5,TTTTGATTGTTATTCGTATATTATTTTATGATTATA [CACACA_negctrl_site1593],6.38
6,CAAAATATTTTTATAACACACATATTTATAACGTGC [CACACA_site6659],6.43
7,AATAATCATTTTCATAGTACGTATGATTAGAAAAAA [XGTACX_site2589],6.58
8,TTATACATTTGTAAATAAATAGAACTGTATTTTTTT [TGCATGCA_negctrl_site397],5.9
9,TATATACCGATATATACACACAAATACATAAGCTTC [CACACA_site6760],6.67
10,TGCCAATTTTTAAAAACATGCATTATATAGAATAAA [TGCATGCA_site872],6.39
11,AATGGAAAATTATTAACACACACATATAAATATATA [CACACA_site7899],6.61
12,TTTTCAATATATAGAGCATGCGCATCCACAAATATG [TGCATGCA_site380],7.14
13,TACAACAATTTTTGCACACACCAAAACATAAAATAA [CACACA_site4964],10.3
14,ATTAAAAGGGGGTTTACATGTGTGTGTGTAATATGG [TGCATGCA_negctrl_site293],7.55
15,ATATTTCATCTAGCTACACACATATAATAAATTATT [CACACA_site4094],7.09
16,AAATGAATTATATAATATATATAAATAAATAAATAA [CACACA_negctrl_site359],6.57
17,TATTATATAACAAAAAGTACTTATAAGAAATATATA [XGTACX_site5467],6.85
18,TAATAAGTACCTTTTGCATGTGGCACGCTTTTTTTT [TGCATGCA_site573],6.21
